In all, about 150,000 compounds went through this assay and about 540 (0.36%) showed an effect of 50% or more. The list shows a part of the results.
tested on: Plasmodium falciparum; test: Primary screen in NF54 nanoGlo assay, in single point, at 2uM, 72h; a lower Z score goes with more inhibition; assay type: functional, Erythrocyte; settings: timepoint 72 hour

SMILES | % Inhibition [%] | Z score
COC[C@H](C)N(Cc1ccc(OC)c(OC)c1)C(=O)CCn1nc(C)c(C)c1C | -2 | 0.25
CN1CCO[C@@H](CNc2ncnc3c2cnn3-c2ccccc2F)C1 | -1 | 0.08
O=C(Cn1c(=O)n(Cc2ccco2)c(=O)c2ccccc21)Nc1cccc(Br)c1 | 32 | -0.75
CN(C)C(=O)CN1CCN(C(=O)C2CCCCC2)[C@H]2CS(=O)(=O)C[C@H]21 | -13 | 1.71
COc1ccc(NC(=O)c2cccc(C)c2C)c(S(=O)(=O)N2CCCCC2)c1 | 3 | -0.37
COc1ccc(C(C)C(=O)N2CCCC[C@@H]2C(=O)O)cc1 (some centres undefined) | 2 | -0.31
O=C1CC[C@H](N2Cc3ccc(NCC(=O)Nc4ccccc4)cc3C2=O)C(=O)N1 | -15 | 1.5
CCOC(=O)Cc1csc(NC(=O)COc2cn(C)c(C)cc2=O)n1 | -2 | 0.29
Cc1ccc(-c2ccc(C(=O)N(C)C3(C#N)CCC3)c(F)c2)cc1C | -15 | 1.39
Cc1nc(C)c(CNc2ccc(C#N)c(C)n2)s1 | -7 | 0.75
CCN(C[C@H]1CCN(C(=O)c2cccc(=O)[nH]2)C1)CC(F)(F)F | -3 | 0.54
CCc1nnc2c(=O)n(CC(=O)Nc3ccccc3F)c3ccccc3n12 | -13 | 2.16
OC[C@@H]1COCCN(CCn2cc(Cl)cn2)C1 | -1 | 0.12
CO[C@@H](CNS(=O)(=O)c1ccc(C)c(C(=O)O)c1C)C(C)(C)C | -7 | 0.71
Cc1ccc(F)c(N2CCC[C@H](NC(=O)c3cn[nH]c(=O)c3)C2)c1 | -9 | 1.23
Cc1noc(C)c1CCC(=O)Nc1nc(-c2ccc3c(c2)OCO3)cs1 | 1 | -0.1
COc1ccc(CN(C)C[C@H]2CCCN(CCO)C2)c(C)c1 | 16 | -2.06
O=C(NCC1CS(=O)(=O)c2ccccc21)N[C@H]1CCO[C@@H]1c1ccncc1 (some centres undefined) | -11 | 1.16
Cc1nc(-c2ccccc2)n(CC(=O)N2CCCCCC2)n1 | 1 | -0.11
COc1ccc(F)c(CN2CCC[C@@]3(CCN(Cc4ncc[nH]4)C3)C2)c1 | 5 | -0.82
CCc1nc(C)sc1CN1C[C@@H]2CC[C@H]1CN(C(=O)c1ccccc1)C2 | 5 | -0.65

SMILES | % Inhibition [%] | Z score
CN(C(=O)C1CCOCC1)C1CCCCC1 | -9 | 1.37
Cc1cnc(NC(=O)NC[C@H](O)C(F)(F)F)cn1 | -18 | 3.59
CC(C)n1ccnc1CN(C)OCc1ccccc1 | -11 | 1.62
O=C(O)[C@@H]1CN(C(=O)c2ccc3[nH]c4c(c3c2)CCCC4)CCN1 | -4 | 0.75
COc1cccc2c1CN(C(=O)Nc1ccc(OCCC(C)C)nn1)C2 | -10 | 1.57
CC(C)(C)[C@]1(C)NC(=O)N(Cc2ccccn2)C1=O | -2 | 0.39
O=C(NCCc1cccnc1)c1cc(O)cc(O)c1 | -10 | 1.04
O=C(Nc1cccc(S(=O)(=O)N2CCCC2)c1)c1cccc(-n2cnnn2)c1 | -15 | 1.5
CN(C)S(=O)(=O)N(CC#N)Cc1ccc(Cl)cc1F | -3 | 0.4
CC(C)c1noc(-c2cn(Cc3c(F)cccc3F)nn2)n1 | 0 | -0.02
Cc1cccc(OC[C@@H](O)Cn2cnc(C)c(C)c2=O)c1 | 33 | -0.48
COc1ccc(N2C(=O)N[C@@H](CC(=O)NCc3cccn3C)C2=O)cc1 | 0 | 0
CC(NCc1cn2ccccc2c1C#N)C(C)n1cccn1 (centres undefined) | -6 | 1.24
CC(C)C(=O)Nc1nnc([C@H]2CC(=O)N(c3ccc(Cl)cc3)C2)o1 | -11 | 1.61
O=C(c1cc(-c2cccnc2)nc2ccccc12)N1CC[C@H]2CC[C@@H](C1)N2 | -9 | 0.82
CCC1(C(=O)O[C@@H](C)c2nnc(C)o2)CCC(O)CC1 (some centres undefined) | -14 | 1.59
CCc1noc(C)c1C(=O)N(C)Cc1ccc2nonc2c1 | -8 | 1.44
O=C(C1=CCCCC1)N1CCC(C2(Cc3ccc(F)cc3)NC(=O)N(CC3CCCO3)C2=O)CC1 (centres undefined) | -10 | 1.41
CC(=O)NCCCC(=O)N1[C@@H]2CC[C@H]1C[C@@H](c1ccc(F)c(C)c1)C2 | -6 | 1.11
COc1ccnc2c(NC(=O)N3CCCN(C)CC3)cccc12 | 1 | -0.08
Cc1cc(S(=O)(=O)N[C@@H](C)c2nncn2C(C)C)c(C)s1 | -11 | 1.91

From ChEMBL document CHEMBL4888484, “Replenishing the malaria drug discovery pipeline: Screening and hit evaluation of the MMV Hit Generation Library 1 (HGL1) against asexual blood stage Plasmodium falciparum ,using a nano luciferase reporter read-out” (2022)
